# B1: F307: phage lysin polypeptide, SEQ ID NO: 1, 16 kDa (protein, listed as Acinetobacter baumannii)
# chain: VKTSNPGVDLIKGFEGLRLKAYDDGVGVWTIGFGTIKYPNGVRVKKGDTCTESQAEEYLRNDLVVFESAINRLVKVPLNQNQFDALASFTYNLGEGNLSISTLLKKLNAKDYKGAAAEFPKWNKAGGRVLAGLVKRRKAEMELFLK
# Test system: A. baumannii clinical isolates
# Assay: Crude lysate clearing zones on A. baumannii soft agar plates
# Details: thirteen A. baumannii clinical isolates
molecule,measurement,value
B1,number of strains for which that lysin was the most efficient,seven

# Source: US11180744B2, “Acinetobacter lysins” (priority 2014, dated 2021)
